Measurements as given in article PMC4336329 (PLoS ONE, 2015).
In all, about 310,000 compounds went through this assay and about 14,000 (4.5%) showed an effect of 50% or more. Effects have a minus sign here. Some of the results follow.

What follows are compounds tested against human ether-à-go-go-related gene (hERG) potassium channel (human, UniProt Q12809) (assay: primary screen, population patch clamp on CHO cells stably expressing hERG).
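Note: peak tail current of the secondary pulse compared with the same well before compound.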

human ether-à-go-go-related gene (hERG) potassium channel, sequence (Q12809 whole entry, looked up): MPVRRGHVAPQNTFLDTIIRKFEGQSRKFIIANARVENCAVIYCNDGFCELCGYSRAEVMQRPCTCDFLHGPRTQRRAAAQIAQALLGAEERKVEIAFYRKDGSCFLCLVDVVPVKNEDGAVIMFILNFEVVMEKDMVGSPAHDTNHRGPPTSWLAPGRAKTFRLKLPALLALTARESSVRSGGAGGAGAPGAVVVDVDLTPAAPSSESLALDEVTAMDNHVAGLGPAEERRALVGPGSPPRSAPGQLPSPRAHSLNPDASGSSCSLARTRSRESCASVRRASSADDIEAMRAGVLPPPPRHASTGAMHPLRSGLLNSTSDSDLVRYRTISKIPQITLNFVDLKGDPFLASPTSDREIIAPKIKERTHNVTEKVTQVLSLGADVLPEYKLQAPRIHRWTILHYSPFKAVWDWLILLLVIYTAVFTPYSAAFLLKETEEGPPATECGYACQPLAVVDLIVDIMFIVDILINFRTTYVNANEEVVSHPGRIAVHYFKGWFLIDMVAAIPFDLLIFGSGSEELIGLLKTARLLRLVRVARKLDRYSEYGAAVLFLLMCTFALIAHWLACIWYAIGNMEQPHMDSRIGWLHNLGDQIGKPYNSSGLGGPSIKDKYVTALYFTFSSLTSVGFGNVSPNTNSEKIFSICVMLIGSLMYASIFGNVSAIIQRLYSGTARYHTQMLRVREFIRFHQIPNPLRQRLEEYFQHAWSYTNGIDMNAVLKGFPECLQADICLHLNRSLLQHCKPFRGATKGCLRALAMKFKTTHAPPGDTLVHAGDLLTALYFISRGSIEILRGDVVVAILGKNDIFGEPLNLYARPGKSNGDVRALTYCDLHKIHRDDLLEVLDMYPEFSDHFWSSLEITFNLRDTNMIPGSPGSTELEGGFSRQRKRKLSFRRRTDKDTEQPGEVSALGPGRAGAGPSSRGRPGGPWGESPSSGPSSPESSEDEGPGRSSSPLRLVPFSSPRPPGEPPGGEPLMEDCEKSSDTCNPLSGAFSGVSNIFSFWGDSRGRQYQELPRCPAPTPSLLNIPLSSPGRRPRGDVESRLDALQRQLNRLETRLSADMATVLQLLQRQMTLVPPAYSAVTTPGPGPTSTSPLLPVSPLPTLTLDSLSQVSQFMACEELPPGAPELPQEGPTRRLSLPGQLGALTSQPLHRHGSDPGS

Compound | hERG current change (%, negative = inhibition) at 10uM [%]
COc1cccc(OCC(Cn2c(C)nc3ccccc32)OC(C)=O)c1 (stereo not shown) | -12.8
CCOC(=O)C1CCN(C(=O)CCCNC(=O)Cn2cnc3sc(C)c(C)c3c2=O)CC1 | -0.596
COc1ccc(C(=O)/C=C/c2ccc(OC(=O)c3cc(OC)c(OC)c(OC)c3)cc2)cc1 | -2.04
O=C(C1CCCN(CCCc2ccccc2)C1)N1CCCCCC1.O=C(O)C(=O)O (stereo not shown) | -46.2
COC(=O)c1ccc(C(c2c(C)n(C)n(-c3ccccc3)c2=O)c2c(C)n(C)n(-c3ccccc3)c2=O)cc1 | 3.98
CSc1ccccc1NC(=O)CN(C)Cc1cccc(Cl)c1.O=C(O)C(=O)O | 6.55
COc1ccc(C(=O)/C(C)=N/O)cc1OC | -0.545
O=C(NC(=S)Nc1ccccn1)c1ccco1 | 2.7
COc1cccc(NC(=O)CN2CCN(CC(=O)Nc3ccc(F)cc3)CC2)c1 | -80.3
O=C(COC(=O)CSc1ccc(F)cc1)NCc1ccco1 | 5.82
Cc1ccc(S(=O)(=O)c2c(N)n(NC(=O)C3CC3)c3nc4ccccc4nc23)cc1 | -4.33
COc1ccc(S(=O)(=O)NCCC(=O)NCc2ccccc2)cc1 | -13.5
CCOc1cc2c(cc1OCC)C(C(=O)O)C(c1ccc(OC)c(O)c1)N(C)C2=O (stereo not shown) | 14.9
O=C(NC1CCN(C(=O)N2CCOCC2)CC1)c1ccccc1 | -9.34
COc1cccc(NC(=O)CCC2CCN(C(=O)Cc3cccc(F)c3)CC2)c1 | -13.7
CCCN(C(=S)Nc1ccccc1)C1CCS(=O)(=O)C1 (stereo not shown) | 19.9
COC(=O)C1=C(N)Oc2c(oc(CO)cc2=O)C1c1c(F)cccc1Cl (stereo not shown) | -4.76
COc1ccc(C(=O)NCC(=O)OCC(=O)N2N=C(c3ccc(Cl)cc3)CC2c2ccco2)cc1OC (stereo not shown) | -5.57
Cc1c(C)n(C(=O)CN2CCC(C)CC2)c2ccccc12 | -14.5
CCOC(=O)CC(=O)Nc1cc(Cl)ccc1O | 1.77
CC(C)c1nnc(NC(=O)COc2ccc3c(c2)OCO3)s1 | 22.4
COC(=O)C1=C(C)N(C)C(=O)NC1c1c(OC)ccc2ccccc12 (stereo not shown) | 10.6

Compound | hERG current change (%, negative = inhibition) at 10uM [%]
CN(c1ccccc1)S(=O)(=O)c1ccc2[nH]c(=O)oc2c1 | 23.8
CC(=O)NCCc1nc2cc(NC(=O)Nc3ccccc3)ccc2n1C | -53.8
Cc1cc(C(=O)NC2CCCc3ccccc32)c(C)o1 (stereo not shown) | -7.47
Cc1cc(C)c(OCCN2C(=O)NC(C)(C)C2=O)c(Cl)c1 | 14.6
O=C(c1cc2ccccc2oc1=O)N(Cc1cccs1)C1CCS(=O)(=O)C1 (stereo not shown) | -5.2
CCN(Cc1ccncc1)C(=O)CSc1ccc2ccccc2c1 | -8.04
CCCCCC(=O)NNC(=S)NC(=O)c1ccc([N+](=O)[O-])cc1 | -4.9
CCCC(=O)NNC(=O)c1ccoc1C | -5.96
COc1cccc(-c2cc(C(=O)NCCc3ccccc3)no2)c1 | 11.9
CCc1noc(C)c1C(=O)NC1CCCc2c1cnn2-c1cc(C)cc(C)c1 (stereo not shown) | 7.45
O=C(CCCCCNc1nc(=S)[nH]c2ccccc12)NCCc1ccccc1 | -4.67
CC(C)c1ccc(NC(=O)c2ccccc2NC(=O)C2CC=CCC2C(=O)O)cc1 (stereo not shown) | 0.664
C=CCN1C(=NC(=O)COc2ccc(Cl)cc2)SC2CS(=O)(=O)CC21 (stereo not shown) | 8.39
CC(C)CCNC(=O)CCn1c(=S)oc2ccccc21 | -7.74
COC(=O)Cc1cc(=O)[nH]c(/N=C(\N)Nc2ccc(C(C)C)cc2)n1 | -2.47
CC(C)Oc1ccc(CNC2CCOC(C)(C)C2)cc1 (stereo not shown) | 18
CCOc1ccccc1N(C(=O)CNC(=O)c1ccco1)C(C(=O)NC1CCCC1)c1ccncc1 (stereo not shown) | 5.91
Cc1ccc(CNC(=O)Cc2ccc(NC3=NC4CS(=O)(=O)CC4S3)cc2)cc1 (stereo not shown) | 12
COc1ccc(C2CC(c3cccs3)=NN2C(=O)CCC(=O)O)cc1OC (stereo not shown) | 6.38
C=CCOC(=O)C1=C[C@@H](c2ccc(C(F)(F)F)cc2)C[C@@H](OCCCCO)O1 | -33.2
Cc1ccc(S(=O)(=O)N/N=C\c2ccccc2OCc2ccccc2)cc1 | 6.22
O=C/C=C/c1c(-c2ccccc2)cc2oc3ccccc3cc1-2 | 13.2

Compound | hERG current change (%, negative = inhibition) at 10uM [%]
CC(C)(C)NC(=O)Nc1ccc2nccnc2c1 | -2.34
NC(=O)[C@@H]1CCCN1Cc1nc(Cc2cccc(C(F)(F)F)c2)no1 | 8.45
CCOc1ccc2nc(N/C(N)=N/C(=S)Nc3ccc(C)c(C)c3)nc(C)c2c1 | -1.22
Cc1ccc(S(=O)(=O)N2CCC(C(=O)NCCc3ccccc3)CC2)cc1 | -0.42
CC(C)c1ccc(Nc2cnn(C34CC5CC(CC(CC(=O)O)(C5)C3)C4)c(=O)c2Cl)cc1 | -5.59
N#CCSc1nnc(CNc2ccc(F)cc2)o1 | 3.67
Cn1c2ccccc2c(=O)c2ccc(C#CC3(N)CCCCC3)cc21 | -12.3
CCn1c(-c2nn(-c3ccccc3)ccc2=O)n[nH]c1=S | 13.8
Cc1noc(C)c1CSc1ccccc1C(=O)N1CCN(c2ccccc2)CC1 | -39.6
O=C(COC(=O)Cc1ccccc1)Nc1nnc(-c2ccccc2)o1 | -16.8
CCn1nc(NC(C)=O)c2cc3ccc(C)cc3nc21 | 4.73
COc1ccccc1-c1nc(N)n[nH]1 | 14.4
COc1ccc(CCC(=O)N/N=C/c2ccc3c(c2)OCO3)cc1 | -5.24
CC(=O)Nc1ccc(OC(=O)c2cccnc2)cc1 | 13.3
CSc1ccc(C(=O)N2CCC(n3nccc3NC(=O)C3CC3)CC2)cc1 | -46.6
CCOc1ccc(OCc2ccc(C(=O)OCc3ccccn3)o2)cc1 | -17
CCN1CCN(C(=O)c2ccc(-c3nc4ccccc4s3)s2)CC1 | -26
COc1cccc(NC(=O)COC(=O)c2c3c(nc4ccccc24)CCC(C)C3)c1 (stereo not shown) | -17.1
O=C(COC(=O)C(c1ccccc1)c1ccccc1)NCc1ccco1 | -45.7
CCN1CCN(CC(=O)Nc2ccc(C(C)=O)cc2)CC1.Cl | -8.61
CN1CCC2(CC1)N=C(c1ccc(F)cc1)C(=S)N2C(=O)c1ccccc1 | -6.2
CN(C)C(CNC(=O)c1cc(S(=O)(=O)N(C)Cc2ccccc2)ccc1Cl)c1ccco1 (stereo not shown) | -24.8

Compound | hERG current change (%, negative = inhibition) at 10uM [%]
Cc1cccc(C)c1NC(=O)COC(=O)CNC(=O)C1CCCCC1 | 16.6
Cc1cc(C)n(C(=O)c2ccc(C)c(S(=O)(=O)N3CCCCC3)c2)n1 | -9.66
C/C(=N\NC(=O)c1cccc(S(=O)(=O)N2CCCC2)c1)c1ccc(OCC(=O)N(C)C)cc1 | -10.3
CCOC(=O)c1ccc2[nH]cc(C(C)=O)c(=O)c2c1 | 0.366
CN1CCN(CC(=O)Nc2cccc(S(=O)(=O)N(C)c3ccccc3)c2)CC1 | -25.6
CC(=O)c1sc(NC(=O)Cc2c(F)cccc2Cl)nc1C | -14.2
COc1ccc(N2C(=O)CC(N3CCC(c4nc5ccccc5[nH]4)CC3)C2=O)cc1 (stereo not shown) | -15.6
CC1=C(C)CC(C(=O)NCc2ccccn2)C(C(=O)O)C1 (stereo not shown) | 12.5
CCCCn1c(N)c(NCc2ccccc2)c(=O)[nH]c1=O | -2.17
COc1cccc(N2CCN(C(=O)c3cccc(N4C(=O)NC5CC4(C)Oc4c(OC)cccc45)c3)CC2)c1 (stereo not shown) | 22.9
CC(=O)Oc1ccc2c3c(c(=O)oc2c1C)CCCC3 | 13.3
CN(C)CCOC(=O)C12CC3CC(C1)CC(C(=O)OCCN(C)C)(C3)C2.Cl | 16.5
CC1Cc2nc(SCC(=O)Nc3ccc4c(c3)OCCO4)n(C)c(=O)c2S1 (stereo not shown) | -9.87
COc1cccc(/C=C2/SC(=S)N(CC(=O)NC3C=CS(=O)(=O)C3)C2=O)c1 (stereo not shown) | 24.1
CCOc1cc(Cl)c(NC(C)=O)cc1OCC | 10
CCCCn1c(N)c(N(CC(C)C)C(=O)c2ccc(S(=O)(=O)N3CCC(C)CC3)cc2)c(=O)[nH]c1=O | -6.16
Cc1cc(NC(=O)CN2CCN(Cc3ccccc3)CC2)nc2c1c(=O)oc1ccccc12 | 0.836
CCOc1ccc(C(C(=O)NC(C)(C)C)N(CCOC)C(=O)CCC(=O)Nc2nccs2)cc1 (stereo not shown) | 5.85
CC(O)c1nc2ccc(Cc3ccc4nc(C(C)O)[nH]c4c3)cc2[nH]1 (stereo not shown) | -2.63
COc1ccc(NC(=O)CCCC(=O)O)cc1Cl | 3.86
Cc1ccc2cc(CN(CC3CCCO3)C(=O)Nc3ccccc3F)c3nnnn3c2c1 (stereo not shown) | 8.59
O=C(CCCC(=O)OCC(=O)c1cccs1)Nc1ccc(Oc2ccccc2)cc1 | 5.16
